Some of the results follow. Values were computed here from the reads of four pooled replicates and scatter widely.

In this assay the target is T1, Pho4 (S. cerevisiae) (UniProt P07270).
T1 sequence: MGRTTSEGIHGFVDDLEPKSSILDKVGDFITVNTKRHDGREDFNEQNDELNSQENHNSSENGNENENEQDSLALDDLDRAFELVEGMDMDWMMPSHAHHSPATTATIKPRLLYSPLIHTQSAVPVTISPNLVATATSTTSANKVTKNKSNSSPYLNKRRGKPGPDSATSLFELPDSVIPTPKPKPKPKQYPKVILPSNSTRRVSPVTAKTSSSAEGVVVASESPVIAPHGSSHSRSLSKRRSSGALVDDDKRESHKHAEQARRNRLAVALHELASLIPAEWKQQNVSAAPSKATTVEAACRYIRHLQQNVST
In words: relative binding free energy (BET-seq); higher = weaker binding. The following applies: reference: library average.
Turning to CTTTTCACGTGTCGGT, the “relative binding free energy” value turned out to be 0.31 kcal/mol.
With TGGTACACGTGAGAGC, the “relative binding free energy” value was 0.2 kcal/mol.
As for TCTGTCACGTGATGTG, the “relative binding free energy” value came to 0.33 kcal/mol.
The value for ATCATCACGTGTGGAT was 0.16 kcal/mol; that for AAGATCACGTGTATTG was 0.11 kcal/mol; that for TCTTGCACGTGCGGTG was -0.04 kcal/mol.
The value for CTGGGCACGTGTGTGA was -0.16 kcal/mol; that for CGGAGCACGTGGCTGT was -0.13 kcal/mol.
Turning to TAGGTCACGTGCCGTT, the “relative binding free energy” value is -0.01 kcal/mol.
GGCAGCACGTGGGACG: the “relative binding free energy” value was -0.09 kcal/mol.
The value for TTGTGCACGTGGTTCT was 0.03 kcal/mol.
The value for CGGTTCACGTGAGTGG was 0.22 kcal/mol; that for GGTTGCACGTGTTCTG was 0.23 kcal/mol.
As for TTTAGCACGTGGCGGT, the figure is -0.22 kcal/mol; as for TAGTTCACGTGTGGTG, 0.4 kcal/mol; as for TATCACACGTGAGTGG, 0.25 kcal/mol.
As for CTATGCACGTGGGATG, the “relative binding free energy” value was -0.16 kcal/mol.
Turning to TTGGTCACGTGTATAT, the “relative binding free energy” value stood at 0.05 kcal/mol.
The value for AGTAGCACGTGATGTA was 0.02 kcal/mol; that for TATTACACGTGTAATA was 0.18 kcal/mol; that for CTGGTCACGTGGGGGA was 0.01 kcal/mol.
As for GAGTACACGTGTGGAT, the figure is 0.14 kcal/mol.
The value for CTGTTCACGTGGCGGT was 0.18 kcal/mol; that for TTTTGCACGTGTTATG was 0.02 kcal/mol; that for TTTGACACGTGAGATG was 0.23 kcal/mol.
As to GCATTCACGTGGGTAG, the “relative binding free energy” value turned out to be 0.28 kcal/mol.
As for CATTACACGTGTGGTA, the “relative binding free energy” value is 0.21 kcal/mol.
For TTTATCACGTGTAGGG, the “relative binding free energy” value worked out at 0.13 kcal/mol.
As for GGTGGCACGTGGCTGG, the figure is -0.1 kcal/mol; as for GGTGACACGTGTTTCG, 0.09 kcal/mol; as for GTCTTCACGTGGTGAT, 0.27 kcal/mol.
For CTGTACACGTGGAAGG, the “relative binding free energy” value was 0.28 kcal/mol.
Regarding CGTTCCACGTGGGGGT, the “relative binding free energy” value was -0.16 kcal/mol.
As for ATGAGCACGTGAAGGG, the “relative binding free energy” value is 0.17 kcal/mol.
Take GTAGACACGTGGAGTT: the “relative binding free energy” value came to 0.05 kcal/mol.
As for TCAGTCACGTGGGGAG, the figure is -0.01 kcal/mol.
As for TAGGGCACGTGGGGGA, the figure is -0.29 kcal/mol; as for ATCGTCACGTGAAGTG, 0.16 kcal/mol; as for GGCGTCACGTGGTGAA, -0.01 kcal/mol.
Regarding TTATGCACGTGAGGCA, the “relative binding free energy” value was 0.23 kcal/mol.
As for TCGAGCACGTGAGGTG, the “relative binding free energy” value was 0.08 kcal/mol.
As for TGTTACACGTGTAGGC, the “relative binding free energy” value came out at 0.16 kcal/mol.
As for ATTAGCACGTGCAGTG, the figure is -0.09 kcal/mol; as for GTCGGCACGTGTTAGA, -0.06 kcal/mol; as for GCGGACACGTGGGTGA, -0.09 kcal/mol.
In the case of GGGATCACGTGGTTCT, the “relative binding free energy” value was found to be 0.21 kcal/mol.
As for GTTAGCACGTGGTATA, the figure is -0.11 kcal/mol; as for CGATGCACGTGGGAGG, -0.3 kcal/mol; as for TACATCACGTGGTTGG, 0.16 kcal/mol.
ATGATCACGTGGATGG: the “relative binding free energy” value was -0.05 kcal/mol.
As for TGCTTCACGTGGTAGG, the figure is 0.24 kcal/mol; as for AGATACACGTGTCTGT, 0.05 kcal/mol; as for TGGCTCACGTGGGTTT, 0.17 kcal/mol.
As for ATGAACACGTGTGGTG, the figure is -0.03 kcal/mol.
The value for TCATGCACGTGTCGGG was -0.09 kcal/mol.
On to ATACGCACGTGGCGGT, for which the “relative binding free energy” value is -0.23 kcal/mol.
GCTTGCACGTGTAGTG: the “relative binding free energy” value was found to be 0.07 kcal/mol.
The value for TTTCTCACGTGTAATA was 0.12 kcal/mol; that for TTCAGCACGTGTAGGT was -0.08 kcal/mol.
As for ATAGGCACGTGTCTGT, the figure is -0.06 kcal/mol; as for GGTATCACGTGGGAAG, 0.05 kcal/mol; as for GTAGCCACGTGTGGGT, 0.05 kcal/mol.
As for AGTGCCACGTGGCGGT, the figure is -0.13 kcal/mol; as for GTAATCACGTGAGTTC, 0.46 kcal/mol.
In the case of TTGGTCACGTGGGGCC, the “relative binding free energy” value came to 0 kcal/mol.
As to GGCAACACGTGGAGGG, the “relative binding free energy” value is -0.03 kcal/mol.
Consider GAGAGCACGTGTAGGT, for which the “relative binding free energy” value is -0.12 kcal/mol.
Consider GTAGGCACGTGTGAGG, for which the “relative binding free energy” value was determined as 0.04 kcal/mol.
The value for AAGTGCACGTGGGCGG was -0.18 kcal/mol.
As for CAAAGCACGTGTGGTG, the figure is -0.04 kcal/mol; as for ATTGGCACGTGGTGCG, -0.24 kcal/mol.
As for GGGACCACGTGGGGAG, the “relative binding free energy” value was -0.13 kcal/mol.
The value for AGAGTCACGTGGTAGA was 0.17 kcal/mol; that for AAGTGCACGTGCAAGG was 0.01 kcal/mol.
Consider TATCACACGTGTTTGG, for which the “relative binding free energy” value amounted to 0.06 kcal/mol.
With GGCGGCACGTGGCAGA, the “relative binding free energy” value is -0.09 kcal/mol.
On to AACTTCACGTGTGTTA, for which the “relative binding free energy” value was 0.24 kcal/mol.
In the case of GTCCGCACGTGATGTG, the “relative binding free energy” value came to 0.09 kcal/mol.
The value for TCGTTCACGTGTTTGG was 0.27 kcal/mol; that for AGGGCCACGTGCGGTG was -0.25 kcal/mol; that for CCGGGCACGTGAGGGT was 0.12 kcal/mol.
As for GTGGACACGTGGGGAC, the figure is 0.01 kcal/mol; as for ACGGTCACGTGGGGTG, -0.24 kcal/mol; as for CCGGGCACGTGGTGAG, -0.16 kcal/mol.
The value for TAAGGCACGTGGGCGT was -0.37 kcal/mol.
For CTGGTCACGTGGAGGG, the “relative binding free energy” value worked out at 0.07 kcal/mol.
For GCGGGCACGTGTGTTG, the “relative binding free energy” value was -0.04 kcal/mol.
The value for AAGTTCACGTGCCGGG was 0.18 kcal/mol; that for GTAGTCACGTGATCGG was 0.19 kcal/mol.
For the sequence CTCTTCACGTGGTGGA, the “relative binding free energy” value came out at 0.27 kcal/mol.
For the sequence AGGTTCACGTGACGGG, the “relative binding free energy” value was 0.29 kcal/mol.
As for TTTTACACGTGAGAGA, the figure is 0.26 kcal/mol.
As for ATGATCACGTGTTGGA, the figure is 0.18 kcal/mol.
Turning to TGTGGCACGTGGCGTC, the “relative binding free energy” value is -0.25 kcal/mol.
As for GCCTACACGTGGTTGT, the figure is 0.25 kcal/mol; as for GGGGACACGTGTAGTA, 0.06 kcal/mol; as for GGGGTCACGTGTTAGT, 0.24 kcal/mol.
As for TATTTCACGTGGATTG, the figure is 0.24 kcal/mol; as for TGGGACACGTGAGAAG, 0.24 kcal/mol.
As for AGTTACACGTGTACAG, the “relative binding free energy” value came out at 0.25 kcal/mol.
Consider GTCTACACGTGGGATG, for which the “relative binding free energy” value worked out at 0.09 kcal/mol.
Regarding TGATGCACGTGAGTCT, the “relative binding free energy” value turned out to be 0.28 kcal/mol.
For the sequence GGGCACACGTGGGTTG, the “relative binding free energy” value was -0.02 kcal/mol.
TAGGGCACGTGCTGTA: the “relative binding free energy” value was -0.29 kcal/mol.
As to ATAGTCACGTGATGGT, the “relative binding free energy” value amounted to 0.07 kcal/mol.
Turning to TTTATCACGTGTTCAT, the “relative binding free energy” value was found to be 0.16 kcal/mol.
For TTGATCACGTGTGAAA, the “relative binding free energy” value amounted to 0.18 kcal/mol.
The value for GGCGGCACGTGGAGCA was 0.01 kcal/mol.
TAAAACACGTGTGGCG: the “relative binding free energy” value amounted to 0.03 kcal/mol.
The value for TAGTTCACGTGTTATG was 0.21 kcal/mol.
As for TGATGCACGTGTGGTG, the “relative binding free energy” value amounted to 0.05 kcal/mol.
For TGTGACACGTGTTTCT, the “relative binding free energy” value is -0.01 kcal/mol.
The value for GGGCTCACGTGGGGAA was 0.28 kcal/mol; that for ATTCACACGTGTGAGT was 0.15 kcal/mol.
As for CTGATCACGTGAGAGG, the figure is 0.34 kcal/mol; as for GTGTCCACGTGAGCGT, 0.32 kcal/mol; as for TATATCACGTGTTTCT, 0.07 kcal/mol.
The value for CCGGGCACGTGTGGCT was 0.07 kcal/mol; that for AAGGGCACGTGGTTGT was -0.08 kcal/mol; that for GGTATCACGTGTCTAG was 0.15 kcal/mol.
As for AGGGACACGTGTTTCT, the “relative binding free energy” value is 0.11 kcal/mol.
Turning to CATTTCACGTGCGTGT, the “relative binding free energy” value amounted to 0.14 kcal/mol.
The value for GGGATCACGTGGGGCC was 0.14 kcal/mol; that for TGAGGCACGTGCAGTG was 0.01 kcal/mol.
With GTTGGCACGTGAGATA, the “relative binding free energy” value is 0.33 kcal/mol.
As for CGATTCACGTGAGGTT, the figure is 0.32 kcal/mol.
With TATTTCACGTGTCTTC, the “relative binding free energy” value is 0.33 kcal/mol.
Consider GTGGCCACGTGCGTTT, for which the “relative binding free energy” value was -0.19 kcal/mol.
The value for TTGTACACGTGAATGT was 0.23 kcal/mol; that for GCGTACACGTGTAGTT was 0.16 kcal/mol; that for TGGTACACGTGACTTA was 0.36 kcal/mol.
As for AGAAACACGTGATTGG, the figure is 0.19 kcal/mol; as for TCGGGCACGTGGGAGT, -0.15 kcal/mol.
As for GACTGCACGTGGGTGT, the figure is -0.12 kcal/mol; as for GATTACACGTGCGGGT, 0.21 kcal/mol.
Take GCAAGCACGTGGGGGC: the “relative binding free energy” value was -0.07 kcal/mol.
In the case of TCCGTCACGTGTAGGT, the “relative binding free energy” value was 0.19 kcal/mol.
Take TTCTGCACGTGTTGAG: the “relative binding free energy” value was -0.04 kcal/mol.
On to GGATTCACGTGAAGGA, for which the “relative binding free energy” value came to 0.49 kcal/mol.
As for TAGCGCACGTGGAGTT, the figure is -0.08 kcal/mol.
As for TTAGGCACGTGTTGCA, the “relative binding free energy” value is -0.18 kcal/mol.
As for TTTGTCACGTGGGCCA, the figure is 0.08 kcal/mol; as for TGGTGCACGTGAAGCG, 0.21 kcal/mol; as for ATTTACACGTGACGGG, 0.14 kcal/mol.
As for GGGCTCACGTGCTTGG, the figure is 0.22 kcal/mol.
As for TCTTGCACGTGGGTTT, the figure is -0.24 kcal/mol.

The record behind these values is the BET-seq Pho4 binding data (Le et al. 2018).
